Where a name gives a salt, the structure may show the parent alone. The list shows a part of the results.

These results are taken from the supplement of paper PMC2702839.

The test relates to Schistosoma mansoni schistosomula. The experiment in a line: phenotypic hit in primary schistosomula screen (any phenotype vs DMSO control) (binary (1 = hit, 0 = no phenotype)); higher = active (phenotype induced). To be noted: 1 µM; time (d): 7.
Take `CC(=O)Oc1ccc2c(c1)CCC1C2CC[C@]2(C)C(=O)CCC12` (stereo not given in full) [estrone acetate]: the phenotypic hit was inactive: 0.

Regarding `CN(C)c1nc(N(C)C)nc(N(C)C)n1` [altretamine], the phenotypic hit was inactive: 0. Turning to `CC(=O)N[C@@H](Cc1c[nH]c2ccccc12)C(N)=O` [acetyltryptophanamide], the phenotypic hit is inactive: 0.

For `CC(=O)O[C@]1(C(C)=O)CC[C@H]2[C@@H]3C[C@H](C)C4=CC(=O)CC[C@]4(C)[C@H]3CC[C@@]21C` [medroxyprogesterone acetate], the phenotypic hit is inactive: 0.

On to `CC(C)NCC(O)c1ccc2ccccc2c1` (stereo not given) [pronetalol hydrochloride], for which the phenotypic hit is inactive: 0. Under `C[C@H]1C[C@@H]2[C@H]([C@@H](O)C[C@@]3(C)[C@H]2CC[C@]3(O)C(=O)CO)[C@@]2(C)C=CC(=O)C=C12` [methylprednisolone] stands inactive: 0; under `CS(=O)(=O)CCCCN=C=S` [erysolin], inactive: 0. Regarding `CCCNCC(O)COc1ccccc1C(=O)CCc1ccccc1` (stereo not given) [propafenone hydrochloride], the phenotypic hit is inactive: 0.

For `CC1(C)C=C[C@H](O)[C@@]2(C)C1C[C@@H](O)[C@]1(C)C2CC[C@@]2(C)[C@H](c3ccoc3)OC(=O)[C@H]3O[C@]321` (stereo not given in full) [7-deacetyldihydrogedunin], the phenotypic hit is inactive: 0. Under `COc1cc([C@@H]2c3cc4c(cc3[C@@H](O[C@@H]3O[C@@H]5CO[C@@H](C)O[C@H]5[C@H](O)[C@H]3O)[C@H]3COC(=O)[C@H]23)OCO4)cc(OC)c1O` [etoposide] stands inactive: 0; under `O=C(Nc1ccccc1)Nc1ccccc1` [diphenylurea], inactive: 0; under `O=c1c(O)c(-c2ccccc2)oc2cc(O)ccc12` [3,7-dihydroxyflavone], inactive: 0. Take `O=c1c(O)c(-c2ccc(O)cc2O)oc2cc(O)cc(O)c12` [morin]: the phenotypic hit was inactive: 0. The figure for `CC(C)C[C@@H](NC(=O)[C@H](C)NC(=O)CNC(=O)[C@@H](NC=O)C(C)C)C(=O)N[C@@H](C)C(=O)N[C@@H](C(=O)N[C@H](C(=O)N[C@H](C(=O)N[C@@H](Cc1c[nH]c2ccccc12)C(=O)N[C@H](CC(C)C)C(=O)N[C@@H](Cc1c[nH]c2ccccc12)C(=O)N[C@H](CC(C)C)C(=O)N[C@@H](Cc1c[nH]c2ccccc12)C(=O)N[C@H](CC(C)C)C(=O)N[C@@H](Cc1c[nH]c2ccccc12)C(=O)NCCO)C(C)C)C(C)C)C(C)C` [gramicidin] is active: 1; for `OC[C@H]1O[C@@H](Oc2cc(O)cc(/C=C/c3ccc(O)cc3)c2)[C@H](O)[C@@H](O)[C@@H]1O` [piceid] it is inactive: 0; for `COc1cc(-c2coc3cc(O[C@@H]4O[C@H](CO)[C@@H](O)[C@H](O)[C@H]4O)c(OC)c(O)c3c2=O)cc(O)c1OC` [iridin] it is inactive: 0. `CCC(=O)O[C@]1(C(=O)CCl)[C@@H](C)C[C@H]2[C@@H]3CCC4=CC(=O)C=C[C@]4(C)[C@@]3(F)[C@@H](O)C[C@@]21C` [clobetasol propionate]: the phenotypic hit is inactive: 0. Under `O=C1C[C@@H](c2ccc(O)cc2)Oc2cc(O)cc(O)c21` [naringenin] stands inactive: 0.

`c1ccc([C@H]2CN3CCSC3=N2)cc1` [levamisole hydrochloride]: the phenotypic hit is inactive: 0. Consider `NC(=O)c1ccc([N+](=O)[O-])cc1Cl` [aklomide], for which the phenotypic hit is inactive: 0. Under `O=C1OCCN1/N=C/c1ccc([N+](=O)[O-])o1` [furazolidone] stands inactive: 0; under `C1CNCCN1` [piperazine], inactive: 0. Turning to `COc1c2occc2c(OC)c2c(=O)cc(C)oc12` [khellin], the phenotypic hit is inactive: 0.

`COc1ccc(-c2coc3c(OC)c(OC)ccc3c2=O)cc1` [retusin dimethyl ether]: the phenotypic hit was active: 1. Under `Cn1c(=O)[nH]c2[nH]cnc2c1=O` [1-methylxanthine] stands inactive: 0; under `C[C@H](CCC(=O)O)[C@H]1CC[C@H]2[C@@H]3[C@H](O)C[C@@H]4C[C@H](O)CC[C@]4(C)[C@H]3CC[C@]12C` [chenodiol], inactive: 0; under `NCC(O)CC(=O)O` (stereo not given) [aminohydroxybutyric acid], inactive: 0. On to `CC(=O)OCC(CCn1cnc2cnc(N)nc21)COC(C)=O` [famciclovir], for which the phenotypic hit was active: 1. As to `NNc1nncc2ccccc12` [hydralazine hydrochloride], the phenotypic hit was inactive: 0. Take `CN1CCN(CCCN2c3ccccc3Sc3ccc(Cl)cc32)CC1` [Prochlorperazine dimaleate]: the phenotypic hit is inactive: 0. The figure for `CC(=O)Oc1cc(OC(C)=O)c2c(c1)O[C@H](c1ccc(OC(C)=O)c(OC(C)=O)c1)[C@H](OC(C)=O)C2` [epicatechin pentaacetate] is inactive: 0.

Regarding `O=C1c2ccccc2C(=O)c2c1ccc(O)c2O` [alizarin], the phenotypic hit was inactive: 0.

Turning to `CC(=O)O[C@H]1CC[C@@]2(C)[C@@H](CC[C@@H]3[C@@H]2CC(=O)[C@]2(C)[C@@H]4[C@H](C[C@@H]32)O[C@]2(CC[C@@H](C)CO2)[C@H]4C)C1` [hecogenin acetate], the phenotypic hit is inactive: 0. On to `COC(=O)/C=C/C(C)=C\C=C\C(C)=C\C=C\C=C(C)\C=C\C=C(C)\C=C\C(=O)O` [bixin], for which the phenotypic hit is inactive: 0. Under `O=c1oc2ccccc2c(O)c1Cc1c(O)c2ccccc2oc1=O` [dicumarol] stands inactive: 0. As to `CCc1cn([C@H]2C[C@H](O)[C@@H](CO)O2)c(=O)[nH]c1=O` [edoxudine], the phenotypic hit is inactive: 0. The figure for `C[C@@H]1O[C@@H](O[C@H]2[C@H](Oc3cc(O)c4c(=O)cc(-c5ccc(O)cc5)oc4c3)O[C@H](CO)[C@@H](O)[C@@H]2O)[C@H](O)[C@H](O)[C@H]1O` [rhoifolin] is inactive: 0; for `Cc1c(N(C)CS(=O)(=O)O)c(=O)n(-c2ccccc2)n1C` [dipyrone] it is inactive: 0. Take `NCCCCC(N)C(=O)NC(Cc1c[nH]c2ccccc12)C(=O)NC(CCCCN)C(=O)O` (stereo not given) [lysyltryptophanyl-lysine acetate]: the phenotypic hit is inactive: 0. Under `CC(NCCC(c1ccccc1)c1ccccc1)c1ccccc1` (stereo not given) [fendiline hydrochloride] stands inactive: 0; under `CC(=O)[C@H]1CC[C@H]2[C@@H]3CC(=O)C4=CC(=O)CC[C@]4(C)[C@H]3CC[C@]12C` [6-oxoprogesterone], inactive: 0.

Consider `CC1(C)OC(=O)NC1=O` [dimethadione], for which the phenotypic hit is inactive: 0. As for `Nc1ccc(C(=O)NCC(=O)O)cc1` [aminohippuric acid], the phenotypic hit was inactive: 0. Under `COc1ccc(NS(=O)(=O)c2ccc(N)cc2)nn1` [sulfamethoxypyridazine] stands inactive: 0; under `Cn1nnnc1SCC1=C(C(=O)O)N2C(=O)[C@@H](NC(=O)[C@H](O)c3ccccc3)[C@H]2SC1` [cefamandole sodium], inactive: 0; under `CCC[C@H](N[C@@H](C)C(=O)N1[C@H](C(=O)O)C[C@@H]2CCCC[C@@H]21)C(=O)OCC` [perindopril erbumine], inactive: 0. Under `OCCN1CCN(CCCN2c3ccccc3Sc3ccc(Cl)cc32)CC1` [perphenazine] stands inactive: 0; under `Nc1ccc(S(=O)(=O)c2ccc(N)cc2)cc1` [dapsone], inactive: 0. On to `OC[C@H]1O[C@@H](Oc2ccc(O)cc2)[C@H](O)[C@@H](O)[C@@H]1O` [arbutin], for which the phenotypic hit is inactive: 0. In the case of `COc1cc(/C=C/C(=O)O)cc(OC)c1OC` [sinapic acid methyl ether], the phenotypic hit is inactive: 0. In the case of `CC(=O)OCC(=O)[C@@]1(O)CCC2C3CC[C@@H]4C[C@H](OC(C)=O)CC[C@]4(C)C3C(=O)C[C@@]21C` (stereo not given in full) [tetrahydrocortisone-3,21-diacetate], the phenotypic hit is inactive: 0. As for `N[C@H]1C(O)O[C@H](CO)[C@@H](O)[C@@H]1O` (stereo not given in full) [glucosamine hydrochloride], the phenotypic hit was inactive: 0.

`COC(=O)C1=CO[C@@H](O[C@@H]2O[C@H](CO)[C@@H](O)[C@H](O)[C@H]2O)[C@@H]2[C@@H](C)[C@@H](O)C[C@H]12` [loganin]: the phenotypic hit is inactive: 0.

On to `NC(C(=O)O)C(O)C(=O)O` (stereo not drawn) [d,l-threo-3-hydroxyaspartic acid], for which the phenotypic hit was inactive: 0. `CC(=O)Oc1cccc2c1C(=O)c1c(OC(C)=O)cc(C(=O)O)cc1C2=O` [diacerin]: the phenotypic hit is inactive: 0.

For the compound `N=C(N)NCCC[C@@H](NC(=O)[C@@H](N)Cc1ccc(O)cc1)C(=O)O` [d[-arg-2]kyotorphan acetate], the phenotypic hit was inactive: 0. The figure for `NC(=O)N/N=C/c1ccc([N+](=O)[O-])o1` [nitrofurazone] is inactive: 0. Under `COc1c(C2COc3cc4c(cc3C2=O)CC(O)C(C)(C)O4)ccc2c1CCC(C)(C)O2` (stereo not given) [dihydromundulone] stands inactive: 0; under `CN(C)CCC[C@@]1(c2ccc(F)cc2)OCc2cc(C#N)ccc21` [escitalopram oxalate], inactive: 0; under `CC(=O)N[C@@H](CCC(=O)O)C(=O)O` [acetylglutamic acid], inactive: 0. Consider `CCCC(=O)Nc1ncnc2c1ncn2[C@@H]1O[C@@H]2COP(=O)(O)O[C@H]2[C@H]1OC(=O)CCC` [bucladesine], for which the phenotypic hit was inactive: 0. With `CC(=O)O[C@H]1CC[C@]2(C)C3=CC(=O)[C@@]4(C)C(C[C@@H]5OC6(OCC(C)CC6Br)[C@@H](C)[C@@H]54)C3CC[C@H]2C1` (stereo partly drawn) [3beta-acetoxy-23-bromo-isoallospirost-9 (11)-ene-12-one], the phenotypic hit is inactive: 0.

Consider `CC(=O)Oc1cccc(O)c1` [resorcinol monoacetate], for which the phenotypic hit was inactive: 0. On to `CCN1CCN(C(=O)N[C@@H](C(=O)N[C@@H]2C(=O)N3[C@@H]2SC(C)(C)[C@@H]3C(=O)O)c2ccccc2)C(=O)C1=O` [piperacillin sodium], for which the phenotypic hit was inactive: 0. On to `C/C1=C\CCC(=O)C2CC(C)(C)C2CC1` (stereo not given) [15-norcaryophyllen-3-one], for which the phenotypic hit was inactive: 0.
